Among the data in PubChem BioAssay AID180 (DTP/NCI, 2004) are T/C values, retold here.

The assay deals with BDF1 mice, Adenocarcinoma 755 s.c., tumor weight T/C. The assay is described as follows: NCI In Vivo Anticancer Drug Screen. Data for tumor model Adenocarcinoma 755 (subcutaneous) in B6D2F1 (BDF1) mice. Particulars: endpoint: mean tumor weight, higher = larger tumour. Put shortly:
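Transplantable tumor implanted; mice dosed with compound or vehicle; survival or tumor size recorded; ratio of treated to vehicle control reported.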

Molecules are shown by their SMILES. Not every entry of the source has a single result; some have several. Only these are listed. There may be further records. Values that stand side by side are repeats in other runs, samples, wells, individuals or studies. Starred links: 1 amine or outer side, 2 acyl side, 3 side chain; linkers in the order of their positions; H or OH if unused. Positions of bridges follow the written chain, without caps; N, C: chain ends. Non-standard residues stand in square brackets, D forms with d. Residues, ends and D or L forms follow the SMILES beside them. Chains are numbered I, II in the order given. Actinocin(9to1) = Cc1c2oc3c(C)ccc(C(=O)[*:1])c3nc-2c(C(=O)[*:2])c(N)c1=O; aThr = C[C@H](O)[C@H](N)C(=O)O; NMeV = CN[C@H](C(=O)O)C(C)C; Sar = CNCC(=O)O

For the compound `CC/C(=C(\CC)c1ccc(OC)cc1)c1ccc(O)cc1`, the T/C is, setting by setting: (dose: 15.0 mg/kg/injection, schedule: Q01DX011 (sc), vehicle: other) 28 % of control and 65 % of control; (dose: 30.0 mg/kg/injection, schedule: Q01DX011 (sc), vehicle: other) 25 % of control and 65 % of control; (dose: 60.0 mg/kg/injection, schedule: Q01DX011 (sc), vehicle: other) 26 % of control and 53 % of control.
On to `CCC(=O)O[C@H]1CC[C@H]2[C@@H]3CC[C@H]4CC(=O)[C@H](C)C[C@]4(C)[C@H]3CC[C@]12C`, for which the T/C (dose: 176.5 mg/kg/injection, schedule: Q01DX011 (sc), vehicle: steriod suspending solution) was 93 % of control and 185 % of control; the T/C (dose: 250.0 mg/kg/injection, schedule: Q01DX011 (sc), vehicle: steriod suspending solution) is 91 % of control and 119 % of control.
For `CCCSc1ncnc2nc[nH]c12`, the T/C (dose: 50.0 mg/kg/injection, schedule: Q01DX001 (ip), vehicle: alcohol) is 43 % of control and 122 % of control.
For the compound `Cc1ccc(CNc2ncnc3[nH]ncc23)cc1C`, the T/C (dose: 200.0 mg/kg/injection, schedule: Q01DX011 (ip), vehicle: methylcellulose (MC)) was 51 % of control and 79 % of control.
With `Nc1nc(=S)c2ncn(C3OC(COC(=O)c4ccc([N+](=O)[O-])cc4)C(OC(=O)c4ccc([N+](=O)[O-])cc4)C3OC(=O)c3ccc([N+](=O)[O-])cc3)c2[nH]1` (stereo not given), for the setting “dose: 6.25 mg/kg/injection, schedule: Q01DX011 (ip), vehicle: carboxymethylcellulose (CMC)”, the T/C is 5 % of control and 64 % of control.
With `[I][Hg][CH2]C1COC([CH2][Hg][I])CO1` (stereo not given), the T/C is, setting by setting: (dose: 7.5 mg/kg/injection, schedule: Q01DX011 (ip), vehicle: methylcellulose (MC)) 43 % of control, 92 % of control, 99 % of control; (dose: 15.0 mg/kg/injection, schedule: Q01DX011 (ip), vehicle: methylcellulose (MC)) 41 % of control and 75 % of control; (dose: 30.0 mg/kg/injection, schedule: Q01DX011 (ip), vehicle: methylcellulose (MC)) 11 % of control, 27 % of control, 38 % of control; (dose: 55.0 mg/kg/injection, schedule: Q01DX001 (ip), vehicle: carboxymethylcellulose (CMC)) 75 % of control and 120 % of control.
Take `O=C1N(Br)C(=O)C(c2ccc(Cl)cc2)(c2ccc(Cl)cc2)N1Br`: where the note is “dose: 15.0 mg/kg/injection, schedule: Q01DX011 (ip), vehicle: carboxymethylcellulose (CMC)”, the T/C was 36 % of control and 68 % of control.
Turning to `Cc1c2oc3c(C)ccc(C(=O)N[C@@H]4C(=O)N[C@H](C(C)C)C(=O)N5CCC[C@H]5C(=O)N(C)CC(=O)N(C)[C@@H](C(C)C)C(=O)O[C@H]4C)c3nc-2c(C(=O)N[C@@H]2C(=O)N[C@H](C(C)C)C(=O)N3CCC[C@H]3C(=O)N(C)CC(=O)N(C)[C@@H](C(C)C)C(=O)O[C@H]2C)c(N)c1=O` (I: [aThr][dV]P[Sar][NMeV] / II: [aThr][dV]P[Sar][NMeV]; ester I:1-I:C, II:1-II:C; linker I:N-II:N via Actinocin(9to1)), the T/C runs as follows: (dose: 0.02 mg/kg/injection, schedule: Q01DX011 (ip), vehicle: carboxymethylcellulose (CMC)) 67 % of control and 102 % of control; (dose: 32.0 micrograms/kg/injection, schedule: Q01DX011 (ip), vehicle: carboxymethylcellulose (CMC)) 18 % of control, 46 % of control, 58 % of control.
For the compound `O=C1NC(=O)C(c2ccc(Cl)cc2)(c2ccccc2Cl)N1` (stereo not given), the T/C (dose: 400.0 mg/kg/injection, schedule: Q01DX011 (ip), vehicle: saline) was 42 % of control and 78 % of control.
Take `CSc1ncnc2c1ncn2C1OC(CO)C(O)C1O` (stereo not given): the T/C was 108 % of control and 156 % of control (dose: 3.8 mg/kg/injection, schedule: Q01DX011 (ip), vehicle: saline); 27 % of control, 37 % of control, 80 % of control (dose: 15.0 mg/kg/injection, schedule: Q01DX011 (ip), vehicle: saline).
For `ClCCn1cnc2c(SCc3ccccc3Cl)ncnc21`, the T/C (dose: 4.0 mg/kg/injection, schedule: Q01DX011 (ip), vehicle: other) is 5 % of control and 54 % of control.
Consider `C[C@]12CCC(=O)C=C1CC[C@H]1[C@@H]3CC[C@](O)(C(=O)CF)[C@@]3(C)C[C@H](O)[C@@]12F`, for which the T/C (dose: 14.0 mg/kg/injection, schedule: Q01DX011 (sc), vehicle: steriod suspending solution) is 24 % of control and 56 % of control.
In the case of `O=[N+]([O-])c1ccc(Oc2cc(Cl)c(Cl)cc2Cl)c([N+](=O)[O-])c1`, the T/C (dose: 100.0 mg/kg/injection, schedule: Q01DX011 (ip), vehicle: carboxymethylcellulose (CMC)) is 37 % of control and 118 % of control.
For the compound `N=[N+]=CC(=O)OCC(N)C(=O)O` (stereo not given), the T/C (dose: 2.88 mg/kg/injection, schedule: Q01DX011 (ip), vehicle: carboxymethylcellulose (CMC)) is 52 % of control and 110 % of control.
As for `O=CCC(O)C(O)C(O)CO` (stereo not given), the T/C (dose: 250.0 mg/kg/injection, schedule: Q01DX011 (ip), vehicle: carboxymethylcellulose (CMC)) was 55 % of control and 122 % of control; the T/C (dose: 500.0 mg/kg/injection, schedule: Q01DX011 (ip), vehicle: carboxymethylcellulose (CMC)) was 36 % of control and 99 % of control; the T/C (dose: 1000.0 mg/kg/injection, schedule: Q01DX011 (ip), vehicle: carboxymethylcellulose (CMC)) is 41 % of control and 167 % of control.
As to `CC(=O)Nc1c(Cl)c(Cl)c2c(c1Cl)C(=O)c1cc(Cl)ccc1-2`, the T/C (dose: 200.0 mg/kg/injection, schedule: Q01DX011 (ip), vehicle: other) is listed as 48 % of control, 54 % of control, 85 % of control.
`O=C=NC(c1ccccc1)(c1ccccc1)c1ccccc1`: the T/C (dose: 56.0 mg/kg/injection, schedule: Q01DX011 (ip), vehicle: carboxymethylcellulose (CMC)) was 71 % of control and 98 % of control.
In the case of `CC(C)Cn1cnc2c(SCc3ccc(Cl)cc3Cl)nc(N)nc21`, the T/C runs as follows: (dose: 25.0 mg/kg/injection, schedule: Q01DX011 (ip), vehicle: other) 41 % of control and 79 % of control; (dose: 50.0 mg/kg/injection, schedule: Q01DX011 (ip), vehicle: other) 30 % of control and 80 % of control; (dose: 100.0 mg/kg/injection, schedule: Q01DX011 (ip), vehicle: other) 12 % of control and 60 % of control.
Turning to `S=P(Oc1ccccc1)(N1CC1)N1CC1`, the T/C was 16 % of control, 49 % of control, 104 % of control (dose: 27.5 mg/kg/injection, schedule: Q01DX011 (ip), vehicle: methylcellulose (MC)); 7 % of control and 41 % of control (dose: 110.0 mg/kg/injection, schedule: Q01DX011 (ip), vehicle: methylcellulose (MC)).
Regarding `C1OC1C1CO1` (stereo not given), the T/C is 63 % of control and 114 % of control (dose: 4.88 mg/kg/injection, schedule: Q01DX011 (ip), vehicle: carboxymethylcellulose (CMC)); 38 % of control and 86 % of control (dose: 6.1 mg/kg/injection, schedule: Q01DX011 (ip), vehicle: carboxymethylcellulose (CMC)); 51 % of control, 86 % of control, 90 % of control (dose: 12.2 mg/kg/injection, schedule: Q01DX011 (ip), vehicle: carboxymethylcellulose (CMC)).
